Experimental data as given in the supplement of paper PMC11876631.
Changes are numbered by the printed parent chain. Numbers in names are those of the source. ± gives the standard deviation of the averaged measurements. Laboratory Escherichia coli strains with one amino-acid change in an essential protein, pooled on minimal glucose agar with carbenicillin or gentamicin at twice the control MIC (plus kanamycin and chloramphenicol for the plasmids), 48 h. Fold change of barcode share against drug-free plates; higher = less susceptible. Active = above 20 in both replicates (the paper's putatively resistant). '<' = one read or none on drug, '>' = one read or none on a drug-free plate. Shares are relative, so most strains fall below 1 when a few take over. Listed are strains with at least 15 reads on both drug-free plates, and hits; most hits rest on fewer reference reads. Replicate rank correlation about 0.5. Edits are read from barcodes.

B1: cysD V23A (protein)
chain: MDQIRLTHLRQLEAESIHIIREAAAEFSNPVMLYSIGKDSSVMLHLARKAFYPGTLPFPLLHVDTGWKFREMYEFRDRTAKAYGCELLVHKNPEGVAMGINPFVHGSAKHTDIMKTEGLKQALNKYGFDAAFGGARRDEEKSRAKERIYSFRDRFHRWDPKNQRPELWHNYNGQINKGESIRVFPLSNWTEQDIWQYIWLENIDIVPLYLAAERPVLERDGMLMMIDDNRIDLQPGEVIKKRMVRFRTLGCWPLTGAVESNAQTLPEIIEEMLVSTTSERQGRVIDRDQAGSMELKKRQGYF
B2: cysD V23Q (protein)
chain: B1 chain with A23Q
B3: cysD V23D (protein)
chain: B1 chain with A23D
B4: cysD V23P (protein)
chain: B1 chain with A23P
B5: cysD V206A (protein)
chain: B1 chain with A23V, V206A
B6: cysD V206W (protein)
chain: B1 chain with A23V, V206W
B7: cysD V206Q (protein)
chain: B1 chain with A23V, V206Q
B8: cysD V206D (protein)
chain: B1 chain with A23V, V206D
B9: cysD V206P (protein)
chain: B1 chain with A23V, V206P
B10: cysD I268A (protein)
chain: B1 chain with A23V, I268A
B11: cysD I268D (protein)
chain: B1 chain with A23V, I268D
B12: cysD I269W (protein)
chain: B1 chain with A23V, I269W
B13: cysE L120A (protein)
chain: MSCEELEIVWNNIKAEARTLADCEPMLASFYHATLLKHENLGSALSYMLANKLSSPIMPAIAIREVVEEAYAADPEMIASAACDIQAVRTRDPAVDKYSTPLLYLKGFHALQAYRIGHWAWNQGRRALAIFLQNQVSVTFQVDIHPAAKIGRGIMLDHATGIVVGETAVIENDVSILQSVTLGGTGKSGGDRHPKIREGVMIGAGAKILGNIEVGRGAKIGAGSVVLQPVPPHTTAAGVPARIVGKPDSDKPSMDMDQHFNGINHTFEYGDGI
B14: cysE L120W (protein)
chain: B13 chain with A120W
B15: cysE L120Q (protein)
chain: B13 chain with A120Q

target: Escherichia coli (laboratory strain); assay: barcode share on antibiotic plates over drug-free plates; higher = less susceptible; settings: antibiotic: carbenicillin; 2× MIC (3.1 µg/mL)
Procedure: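 A pool of E. coli strains, each edited to carry one amino-acid change in an essential protein, was grown for 48 h on minimal glucose agar with or without antibiotic; strain barcodes were sequenced; mean of two replicates.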

Q: How did the “fold change of barcode share” value turn out when B1 was run?
A: 2.01 ± 1.9

Q: B2 was tested. Which “fold change of barcode share” value did it give?
A: 0.623 ± 0.051

Q: B3 was tested. Which “fold change of barcode share” value did it give?
A: 1.26 ± 0.7

Q: How did the “fold change of barcode share” value turn out when B4 was run?
A: 1.09 ± 0.046

Q: For B5, which “fold change of barcode share” value is on record?
A: 0.689 ± 0.038

Q: How did the “fold change of barcode share” value turn out when B6 was run?
A: 2.47 ± 0.27

Q: How did the “fold change of barcode share” value turn out when B7 was run?
A: 0.743 ± 0.029

Q: Which “fold change of barcode share” value does the source give for B8 here?
A: 0.774 ± 0.067

Q: Which “fold change of barcode share” value does the source give for B9 here?
A: 0.631 ± 0.14

Q: B10 was tested. Which “fold change of barcode share” value did it give?
A: 4.21 ± 1.5

Q: With B11 as the protein, how does the “fold change of barcode share” value read?
A: > 45 [active]

Q: With B12 as the protein, how does the “fold change of barcode share” value read?
A: 1.95 ± 0.6

Q: Which “fold change of barcode share” value does the source give for B13 here?
A: 0.25 ± 0.055

Q: For B14, which “fold change of barcode share” value is on record?
A: 0.18 ± 0.033

Q: How did the “fold change of barcode share” value turn out when B15 was run?
A: 0.13 ± 0.085

same assay, conditions: antibiotic: gentamicin; 2× MIC (MIC 0.45 µg/mL)

Q: How did the “fold change of barcode share” value turn out when B1 was run?
A: 0.182 ± 0.23

Q: B5 was tested. Which “fold change of barcode share” value did it give?
A: 0.00739 ± 0.0045

Q: Which “fold change of barcode share” value does the source give for B6 here?
A: 0.0315 ± 0.034

Q: Which “fold change of barcode share” value does the source give for B7 here?
A: 0.16 ± 0.17

Q: With B8 as the protein, how does the “fold change of barcode share” value read?
A: 0.382 ± 0.47

Q: How did the “fold change of barcode share” value turn out when B9 was run?
A: 0.00981 ± 0.0022

Q: Which “fold change of barcode share” value does the source give for B13 here?
A: 0.0704 ± 0.095

Q: How did the “fold change of barcode share” value turn out when B14 was run?
A: < 0.00471
